Positions count from the first letter of the chain named. Names and notes keep the numbering of the source.

To fix the notation:
T1: human TNFR2 (residues 1-461) expressed on HEK-TNFR2 reporter cells (human, UniProt P20333 23-461)
T1 sequence (looked up): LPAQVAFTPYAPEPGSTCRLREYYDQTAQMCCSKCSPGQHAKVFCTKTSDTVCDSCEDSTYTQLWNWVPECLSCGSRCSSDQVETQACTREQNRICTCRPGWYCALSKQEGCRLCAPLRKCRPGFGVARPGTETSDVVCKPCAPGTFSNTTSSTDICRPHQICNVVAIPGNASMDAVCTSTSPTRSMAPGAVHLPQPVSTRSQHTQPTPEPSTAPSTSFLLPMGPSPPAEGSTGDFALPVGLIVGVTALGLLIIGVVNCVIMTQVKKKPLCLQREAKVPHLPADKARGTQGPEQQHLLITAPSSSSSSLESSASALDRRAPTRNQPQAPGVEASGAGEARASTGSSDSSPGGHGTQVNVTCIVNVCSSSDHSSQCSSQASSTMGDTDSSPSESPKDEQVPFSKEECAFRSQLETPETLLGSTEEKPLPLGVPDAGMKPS

T2: recombinant human TNFR2 with 6×his tag (human, UniProt P20333 23-257, limits assumed)
T2 construct: Bought (Reprokine, Israel); also called TNFR2-His; hTNFR2-His; not shown: 6xHis tag
T2 sequence (looked up): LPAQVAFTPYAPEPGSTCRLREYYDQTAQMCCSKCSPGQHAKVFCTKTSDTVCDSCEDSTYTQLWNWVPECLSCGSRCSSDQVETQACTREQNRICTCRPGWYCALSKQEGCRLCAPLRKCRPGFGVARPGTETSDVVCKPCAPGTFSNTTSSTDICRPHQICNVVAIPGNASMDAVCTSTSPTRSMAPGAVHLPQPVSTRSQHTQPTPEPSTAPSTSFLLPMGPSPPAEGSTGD

B1: BDG30.094 (antibody, human IgG1, kappa)
heavy: EVQLVQSGAEVKKPGSSVKVSCKASGDTFTSYSFNWVRQAPGQGLEWMGRIITDLDDTEYAPHLQGRVTITADKSTSTVYLELRNLRSDDTAVYFCAGVYEGPNSEGSYDDYGQLKHWGQGTLVTVSS[human IgG1 constant region not written out]
light: DIVMTQSPATLSVSPGERATLSCRASESVANDLAWYQQKPGQVPRLLIYGASTRATGVPARFSGSGSGAEFTLTISSLQSEDFAVYYCQQYANWPPRETFGQGTRLEIKRTVAAPSVFIFPPSDEQLKSGTASVVCLLNNFYPREAKVQWKVDNALQSGNSQESVTEQDSKDSTYSLSSTLTLSKADYEKHKVYACEVTHQGLSSPVTKSFNRGEC
notes: Human IgG1; also called IgG of CID_280
B2: BDG30.092 (antibody, human IgG1, kappa)
heavy: B1 heavy with D54I, L55Y, Q114F, L115F
light: B1 light
notes: Human IgG1; also called IgG of CID_276
B3: BDG30.118 (antibody, human IgG1, kappa)
heavy: EVQLVQSGAEVKKPGSSVKVSCKASGDTFTSYSFNWVRQAPGQGLEWMGRIITDLDDTEYAPHLQGRVTITADKSTSTVYLELRNLRSDDTAVYFCAGVYEGPNSEGSYDDYGQLKHWGQGTLVTVSS[human IgG1 constant region with changes not written out]
light: B1 light
notes: Human IgG1(L234A/L235A); also called IgG of CID_280
B4: BDG30.093 (antibody, human IgG1, kappa)
heavy: B1 heavy with D54I, Q114F, H117Y
light: B1 light with N31V, W94K
notes: Human IgG1; also called IgG of CID_277

The first test has as its target T1, human TNFR2 (residues 1-461) expressed …. Put plainly: cell-based or functional assay.
Take B1: the “Functional Agonism EC50 (nM), NFkB-SEAP reporter” value was determined as 3.9 nM.
Same read-out and setting: in the case of B2 it was 17.6 nM.
Same read-out and setting: with B3 the figure was 5.4 nM; with B4, 20.6 nM.

In the next test the target is T2, recombinant human TNFR2 with 6×his tag. Put plainly: ELISA, IgG coated, hTNFR2-His titrated, anti-His-HRP. On the procedure: IgG binding affinity to TNFR2 was examined by ELISA. 96 well plates (Greiner Bio-One high binding) were coated with (50 ng/well) of the analyzed antibody and incubated overnight at 4° C. The plates were then washed three times with 300 μl PBS buffer containing 0.05% Tween 20 (PBS-T), blocked with 300μ PBS-T supplemented with 1% to 2% BSA, and incubated for 1 hour at room temperature. Antibodies-coated plates were washed three times with 300 μl PBS-T and incubated with serial dilutions of test ligand hTNFR2-His (Reprokine, Israel) in a final volume of […] for 1-2 hours. Plates were then washed three times with 300 μl PBS-T and incubated with 50 μl anti-HIS-HRP (Santa Cruz Biotechnology, USA, SC-8036HRP) conjugate that was diluted 1:250 in PBS. After an additional wash step of six washes, the reaction was developed with […] tetramethylbenzidine (TMB) reagent (Southern biotech, USA), and stopped with […] 0.5N H₂SO₄. Detection was done on a Synergy LX BioTek (BioTek, USA) plate reader with an absorbance filter set to […]. The binding affinity was determined by fitting the data to a specific binding non-linear regression model on Prisma 8 GraphPad software.
To test binding affinity of clones reformatted as IgG1 and IgG1LALA to TNFR2, an ELISA EC₅₀ binding experiment was conducted for each antibody.
A general note: ELISA stands for enzyme-linked immunosorbent assay.
One may read the EC50 as the midpoint of the concentration-response curve. Consider B1, for which the EC50 is 3.7 nM.
Still for that read-out and setting: with B2 the figure was 15.4 nM.
Same read-out and setting: in the case of B3 it was 1.7 nM; in that of B4, 6.8 nM.

(Values after patent US20230167188A1 (BIOLOJIC DESIGN, published 2023).)
